Laboratory results from paper PMC6919601, “Identification of Plasmodium dipeptidyl aminopeptidase allosteric inhibitors by high throughput screening” (PLoS ONE, 2019).
Out of some 110,000 compounds screened, about 230 (0.21%) showed an effect of 50% or more. Some of the results follow.

Biological target: DPAP1 (Plasmodium falciparum, UniProt Q8IIJ9)
Test: primary screen, percent inhibition; read by cleavage of a fluorogenic dipeptide substrate; higher = more effect of the substance
Set-up: species or system P. falciparum D10 trophozoite lysates; single well
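Further: 30 min substrate incubation versus DMSO and 10 µM JCP410 controls.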

Chain of DPAP1 (Q8IIJ9 whole entry, looked up): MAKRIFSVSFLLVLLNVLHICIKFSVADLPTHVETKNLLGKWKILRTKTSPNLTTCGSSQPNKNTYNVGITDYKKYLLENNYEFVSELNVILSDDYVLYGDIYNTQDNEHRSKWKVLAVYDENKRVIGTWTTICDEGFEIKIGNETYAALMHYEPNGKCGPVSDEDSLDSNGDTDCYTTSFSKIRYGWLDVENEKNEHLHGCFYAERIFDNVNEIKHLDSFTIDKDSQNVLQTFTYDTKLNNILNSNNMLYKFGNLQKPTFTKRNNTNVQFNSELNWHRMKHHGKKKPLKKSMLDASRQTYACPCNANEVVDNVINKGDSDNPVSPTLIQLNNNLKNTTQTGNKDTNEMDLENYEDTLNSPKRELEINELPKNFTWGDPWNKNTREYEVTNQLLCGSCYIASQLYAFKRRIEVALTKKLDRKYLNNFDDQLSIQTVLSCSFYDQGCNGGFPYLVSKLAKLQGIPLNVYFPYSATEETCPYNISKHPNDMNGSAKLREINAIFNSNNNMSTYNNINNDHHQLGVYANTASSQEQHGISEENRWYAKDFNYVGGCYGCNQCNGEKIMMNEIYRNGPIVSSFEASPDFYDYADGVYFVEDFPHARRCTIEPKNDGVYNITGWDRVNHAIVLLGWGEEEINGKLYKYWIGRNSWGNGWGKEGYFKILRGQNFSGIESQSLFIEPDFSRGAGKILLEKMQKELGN

Structure (SMILES) | % Inhibition @ 10 uM
CCc1cc2c(N3CCCCCC3)ncnc2s1 | -4.05%
CC1(C)OC(=O)C2(C(=O)O1)C1C3C4CC5C6C4C1C6C2C53 (stereo not shown) | 2.5%
O=C1CN=C(c2ccccc2)c2cc(Br)ccc2N1 | -11.2%
COCCCNC(=O)NC1CCCN(S(=O)(=O)c2ccc(C)cc2)C1 (stereo not shown) | 0.635%
CCOC(=O)c1c(CSc2ccsc2)n(C)c2cc(Br)c(O)c(CN(C)C)c12 | -1.47%
CC1=C(C(=O)Nc2ccccc2C)C(c2ccccc2C)C2=C(O)CCCC2=N1 (stereo not shown) | 2.38%
O=C(CN1CC(=O)N2CCCC2C1=O)NCc1cccs1 (stereo not shown) | -5.05%
CCCCCOc1ccc(CN2CCOCC2)cc1Cl | -4.23%
CN(CCc1ccccc1)Cc1cccc(O)c1 | 3.35%
CNS(=O)(=O)c1cn(CC(=O)Nc2cccnc2)cc1S(=O)(=O)NC | -7.87%
CCOc1ccccc1N(CC(=O)NCc1ccncc1)S(C)(=O)=O | 1.02%
Cc1noc(/C=C/c2cccs2)c1S(=O)(=O)N1CCCC(C(=O)N2CCC(C)CC2)C1 (stereo not shown) | -1.66%
CCOc1ccc(-c2nnc(SCC(=O)N3CCC(C)CC3)o2)cc1 | 5.56%
CC(C)C[C@H](NC(=O)c1ccc(-c2ccc3[nH]ccc3c2)cc1)C(=O)NCC#N | -3.04%
CCOC(=O)c1cc2c(=O)n3ccccc3nc2n(CCOC)/c1=N\C(=O)C(C)(C)C | -2.04%
Cc1cc(C(=O)Nc2ccc(Cl)c(Cl)c2)ccc1[N+](=O)[O-] | -0.268%
CC(=O)Nc1ccc(S(=O)(=O)Nc2nc3ccccc3nc2Nc2ccc(S(N)(=O)=O)cc2)cc1 | -9.29%
CCOc1ccc(CCNC(=O)c2ccc(CN3CC(=O)N4CCCCC4C3=O)cc2)cc1OCC (stereo not shown) | 6.08%
CCCN(CCC)C(=O)C1C2CCC(O2)C1C(=O)O (stereo not shown) | -4.6%
CCn1cc(Cl)c(C(=O)Nc2nc3ccccc3n2CCN2CCCCC2)n1 | 1.35%
CCCCNS(=O)(=O)c1cc(Br)cnc1N | 2.32%
CCCC1=C(C(=O)OCC)C(c2ccsc2)C(C#N)=C(N)O1 (stereo not shown) | -0.261%
CCNC(=S)N1CCN=C1Nc1nc(C)cc(C)n1 | 0.189%
CCn1cc(C(=O)OC)c(=O)c2ccc(C)nc21 | -8.24%
O=C(NC1CCCCC1)N1CCC(Cc2ccccc2)CC1 | 5.81%
C=CCNC(=O)c1cc2c(=O)n3cccc(C)c3nc2n(CC=C)c1=N | -7.08%
CCS(=O)(=O)c1nc2ccccc2n1Cc1ccc(C(C)(C)C)cc1 | 1.72%
COc1ccc(C(=O)NCc2nnc(SCC(=O)NCC3CCCO3)o2)cc1 (stereo not shown) | 8.26%
